LogEC50 data for 1 molecule are collected here from patent US20170088618A1 (CELGENE, published 2017).

Experiment [1] addresses T1, human PD-1 expressed on cells (human, UniProt Q15116 fragment).
T1 construct: also called human PD-1-CHO cells; CHO-hPD-1
Description: flow cytometry on CHO cells expressing human PD-1; detection with anti-human IgG Fc (PE GeoMFI); axis 'Primary Ab conc (nM)' carries log values -3 to 3.

For experiment [2], the target named is T2, cynomolgus PD-1 expressed on cells (cynomolgus, UniProt B0LAJ3 25-288).
T2 construct: also called cynomolgus PD-1 on CHO cells; PD-1 on cynomolgus T cells
Description: flow cytometry on CHO cells expressing cynomolgus PD-1; detection with anti-human IgG Fc (PE GeoMFI); axis 'Primary Ab conc (nM)' carries log values -3 to 3. (In general: Flow cytometry measures light scatter and fluorescence of single cells or particles in a stream.)

T1 sequence (Q15116 25-198 limits assumed): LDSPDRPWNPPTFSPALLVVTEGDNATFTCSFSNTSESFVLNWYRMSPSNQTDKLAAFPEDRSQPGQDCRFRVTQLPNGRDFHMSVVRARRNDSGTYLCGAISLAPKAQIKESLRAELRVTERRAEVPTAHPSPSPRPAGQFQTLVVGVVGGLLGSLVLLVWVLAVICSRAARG
T2 sequence (B0LAJ3 entry or part of it limits assumed): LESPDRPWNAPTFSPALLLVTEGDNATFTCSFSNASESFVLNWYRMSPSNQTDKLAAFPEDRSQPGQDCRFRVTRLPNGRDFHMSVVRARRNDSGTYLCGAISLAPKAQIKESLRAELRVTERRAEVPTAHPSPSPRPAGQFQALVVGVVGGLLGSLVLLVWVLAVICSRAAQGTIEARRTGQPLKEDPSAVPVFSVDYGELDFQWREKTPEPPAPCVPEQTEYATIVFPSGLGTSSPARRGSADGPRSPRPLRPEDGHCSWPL

B1: PD1AB-6-IgG1 (antibody)
heavy: EVQLVQSGAEVKKPGATVKISCKASGFNIKDTYMHWVQQAPGKGLEWMGRIDPANGDRKYDPKFQGRVTITADTSTDTAYMELSSLRSEDTAVYYCARSGPVYYYGSSYVMDYWGQGTTVTVSS[letters of human IgG1 constant region left out]
light: DIVMTQSPDSLAVSLGERATINCKSGQSVLYSSNQKNFLAWYQQKPGQPPKLLIYWASTRESGVPDRFSGSGSGTDFTLTISSLQAEDVAVYYCHQYLYSWTFGQGTKLEIKRTVAAPSVFIFPPSDEQLKSGTASVVCLLNNFYPREAKVQWKVDNALQSGNSQESVTEQDSKDSTYSLSSTLTLSKADYEKHKVYACEVTHQGLSSPVTKSFNRGEC
notes: also called IgG1_PD1AB-6; IgG1-PD1AB-6
As for B1, the LogEC50 in experiment [1] is 0.431 log10(nM); in experiment [2] it was 0.806 log10(nM).
